Assay results reported in publication PMC4336329 (PLoS ONE, 2015).
The whole screen tested about 310,000 compounds, of which about 2,200 (0.71%) showed an effect of 50% or more. Effects have a minus sign here. This is one part of the list.

target: human ether-à-go-go-related gene (hERG) potassium channel (human, UniProt Q12809); test: primary screen, population patch clamp on CHO cells stably expressing hERG
Sequence (Q12809 whole entry, looked up): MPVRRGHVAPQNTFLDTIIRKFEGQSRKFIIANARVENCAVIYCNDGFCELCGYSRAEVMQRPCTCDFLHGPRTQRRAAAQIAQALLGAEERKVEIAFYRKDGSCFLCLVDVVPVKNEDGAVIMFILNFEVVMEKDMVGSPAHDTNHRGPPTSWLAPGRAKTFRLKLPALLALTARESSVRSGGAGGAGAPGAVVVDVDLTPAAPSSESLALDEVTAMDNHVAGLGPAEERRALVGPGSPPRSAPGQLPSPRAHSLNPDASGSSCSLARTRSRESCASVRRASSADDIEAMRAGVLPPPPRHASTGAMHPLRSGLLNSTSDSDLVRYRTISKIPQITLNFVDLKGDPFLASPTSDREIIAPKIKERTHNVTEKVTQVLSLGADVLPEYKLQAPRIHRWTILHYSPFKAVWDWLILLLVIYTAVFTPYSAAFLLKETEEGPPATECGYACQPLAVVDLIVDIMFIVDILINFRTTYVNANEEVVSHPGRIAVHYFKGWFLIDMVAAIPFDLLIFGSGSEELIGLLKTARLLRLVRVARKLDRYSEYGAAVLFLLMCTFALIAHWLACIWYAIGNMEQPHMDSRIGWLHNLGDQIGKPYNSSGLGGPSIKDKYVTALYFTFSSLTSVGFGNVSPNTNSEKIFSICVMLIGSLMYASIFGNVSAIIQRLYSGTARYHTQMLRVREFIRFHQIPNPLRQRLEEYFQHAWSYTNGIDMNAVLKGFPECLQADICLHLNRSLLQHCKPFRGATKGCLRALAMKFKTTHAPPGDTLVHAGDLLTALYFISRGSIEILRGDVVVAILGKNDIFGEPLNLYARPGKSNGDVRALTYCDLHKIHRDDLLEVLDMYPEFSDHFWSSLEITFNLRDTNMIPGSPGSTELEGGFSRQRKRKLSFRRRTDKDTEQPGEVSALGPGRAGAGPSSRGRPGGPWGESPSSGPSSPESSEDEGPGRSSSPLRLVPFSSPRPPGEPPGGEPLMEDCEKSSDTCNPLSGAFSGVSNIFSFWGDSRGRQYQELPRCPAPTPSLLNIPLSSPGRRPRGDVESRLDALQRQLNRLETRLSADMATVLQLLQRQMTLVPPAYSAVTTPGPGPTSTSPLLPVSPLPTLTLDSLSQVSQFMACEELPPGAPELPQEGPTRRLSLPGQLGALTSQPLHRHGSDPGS

SMILES	hERG current change (%, negative = inhibition) at 1uM [%]
O=C(CSc1nc(-c2ccccc2)ns1)N1CCOCC1	6.82
CN(C)CCC(=O)N1c2ccccc2Sc2ccc(C(F)(F)F)cc21.O=C(O)/C=C/C(=O)O	6.4
O=S(=O)(NCCc1csc(-c2cccnc2)n1)c1ccc2c(c1)OCCO2	8.53
COc1ccccc1N1CCN(CC(=O)c2c(C)n(C)c3ccccc23)CC1	1.42
Cc1cc(C(=O)Cn2nc(C(=O)O)c3ccccc3c2=O)c(C)n1CC(F)(F)F	9.55
COc1cc(OC)cc(C(=O)NNC(=O)c2cc3ccccc3cc2O)c1	14.4
COc1ccc(C2=C(N)c3ccccc3C2=O)cc1	15.7
CN1CCN(C(=O)c2ccccc2NC(=O)c2cccs2)CC1	3.42
COc1ccc(N2CCN(C(=O)c3cc4c(C)nc5ccccc5c4o3)CC2)cc1	0.465
Br.CC(C)(C)C(=O)Cn1c(NCCO)nc2ccccc21	6.96
CN(C)c1nc(-c2ccccc2)nc(-c2ccc(Cl)cc2)c1C#N	10.8
O=C(c1sccc1Br)N1CCN(Cc2ccc3c(c2)OCO3)CC1	8.79
COC(=O)Cn1cnc2c(nnn2-c2ccc(F)cc2)c1=O	14
COc1ccc(NS(=O)(=O)c2ccc(N)cc2)nn1	17.4
CCCn1c(N)c(C(=O)CSc2nc(C)nc3sc(C)c(C)c23)c(=O)[nH]c1=O	12.6
O=C(N/N=C/c1ccc(C(F)(F)F)cc1)c1ccc(O)cc1	14.5
CCOC(=O)N/N=C/c1cn(Cc2ccccc2Cl)c2ccccc12	4.67
N#Cc1c2n(c(=S)n(-c3ccccn3)c1=O)CCCCC2	2.42
COc1ccccc1OCC(=O)NNC(=O)Nc1ccc(Cl)cc1	8.09
Cc1cc(=O)oc(C)c1C(=O)NCc1ccccc1	8.1
CCc1cc(=O)oc2c(C)c(O)c(CN3CCCCC3)cc12	3.51
Nc1nc(-c2cccnc2)nn1C(=O)CCc1ccccc1	4.3

SMILES	hERG current change (%, negative = inhibition) at 1uM [%]
Cc1ccc(S(=O)(=O)NC(C)C(=O)N2CCOCCOCCOCC2)cc1 (centres unmarked)	8.66
CC(C)NC(=O)C1CCN(C2CCN(Cc3nc(C(C)C)cs3)CC2)CC1	-15.6
COCCN(Cc1cc2c(C)cc(C)cc2nc1Cl)C(=O)c1ccccc1F	14.5
O=C1NCN(c2ccccc2)C12CCN(CCCC(c1ccc(F)cc1)c1ccc(F)cc1)CC2	-36.2
O=C1CCCN1CCCNC(=S)Nc1cccc2ccccc12	15.5
O=C(O)CCC1=C2c3ccccc3CCN2C(=O)CC1	7.74
O=C(Nc1ccc2nc(C3CC3)n(Cc3ccccc3)c(=O)c2c1)C1CC1	-2.74
CC(=O)c1sc(NC(=O)c2oc3ccc(F)cc3c2C)nc1C	6.91
COC(=O)NNC(=S)Nc1cc(OC)ccc1OC	-2.88
COc1ccc(C(=O)N2CCc3ccccc32)cc1S(=O)(=O)N1CCOCC1	-4.94
Cc1cccc(Cc2nnc(CCC(=O)N3CCCCC3c3nccs3)o2)c1 (centres unmarked)	5.24
N#CC1(c2ccccc2)CCC(=O)N1Cc1ccccc1 (centres unmarked)	15.8
O=C(CCNc1ccc(Cc2ccncc2)cc1)c1ccc([N+](=O)[O-])cc1	6.69
COc1ccc(C(OC(=O)c2ccco2)C(=O)NC2CCCCC2)cc1OC (centres unmarked)	15.1
CC1CC(C)CN(C(=O)COC(=O)CCc2nc3ccccc3c(=O)[nH]2)C1 (centres unmarked)	11.3
CC(=O)N1c2ccc(S(=O)(=O)NCCC(=O)Nc3ncccc3C)cc2CC1C (centres unmarked)	10.3
CC(=O)Oc1ccc2cc(-c3ccccc3)c(=O)oc2c1	17.6
CCOC(=O)CNC(=O)CN1C(=O)CCSc2ccccc21	14.3
Cc1ccc(C(=O)Nc2cccc3ncccc23)cc1[N+](=O)[O-]	7.37
COc1ccc(NS(=O)(=O)c2cc(NC(=O)CC3CCCC3)ccc2N2CCOCC2)cc1	2.38
Cc1ccc(NC(=O)C(c2ccccc2)N2CCN(CC(=O)N3CCOCC3)CC2)cc1 (centres unmarked)	-8.48
O=C(NC1CCCCC1)C(c1ccc(O)c(O)c1)N(C(=O)Cn1nnc2ccccc21)c1cccc(O)c1 (centres unmarked)	16.1
